Test results reported in the supplement of paper PMC10441789.
The list shows a part of the results. Antibody binding of pooled human sera (four to six donors per pool; dilution not stated) to peptides of the Trypanosoma cruzi antigen TSSA on microarrays. Quantile-normalised fluorescence in arbitrary units, mean of duplicate arrays; higher = more binding. No active / inactive call. The uninfected pools are read here as the healthy donors of the same country. The strongest signals lie near the top of the scale (about 60,000).

Experiments:
Assay in all cases: antibody binding signal (normalised fluorescence) (arbitrary fluorescence units); higher = stronger serum antibody binding to peptide
[1] = test system: pooled sera of chronic Chagas disease patients, Bolivia
Protocol: (§1)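 Microarray of 15-residue peptides over residues 30-55 of Trypanosoma cruzi TSSAII, each with 1 to 10 substitutions at naturally variable positions, probed with one serum pool per country.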

[2] = test system: pooled sera of chronic Chagas disease patients, Brazil
Protocol: as §1

[3] = test system: pooled sera of chronic Chagas disease patients, Colombia
Protocol: as §1

[4] = test system: pooled sera of chronic Chagas disease patients, Mexico
Protocol: as §1

[5] = test system: pooled sera of chronic Chagas disease patients, USA
Protocol: as §1

[6] = test system: pooled sera of uninfected people, Argentina
Protocol: as §1

[7] = test system: pooled sera of uninfected people, Bolivia
Protocol: as §1

[8] = test system: pooled sera of uninfected people, Brazil
Protocol: as §1

[9] = test system: pooled sera of uninfected people, Colombia
Protocol: as §1

[10] = test system: pooled sera of uninfected people, Mexico
Protocol: as §1

[11] = test system: pooled sera of uninfected people, USA
Protocol: as §1

Row | Sequence | antibody binding signal [1] | antibody binding signal [2] | antibody binding signal [3] | antibody binding signal [4] | antibody binding signal [5] | antibody binding signal [6] | antibody binding signal [7] | antibody binding signal [8] | antibody binding signal [9] | antibody binding signal [10] | antibody binding signal [11]
1 | GKDKKPATGEAPSPP | 17200 | 39400 | 1350 | 1530 | 33200 | 738 | 292 | 130 | 184 | 97.2 | 116
2 | PPSGKEKKTATGEAP | 2840 | 5770 | 2130 | 3740 | 15900 | 479 | 668 | 121 | 272 | 218 | 182
3 | SGKEKKPAAGGAPSP | 1680 | 4430 | 6440 | 8100 | 5330 | 199 | 147 | 124 | 121 | 87.6 | 241
4 | KDNKTATGGAPSQPG | 272 | 751 | 1880 | 223 | 317 | 356 | 166 | 153 | 180 | 103 | 158
5 | GKENKAATGGAPSPS | 819 | 6530 | 4970 | 4930 | 13200 | 401 | 152 | 517 | 123 | 132 | 128
6 | DNKPAAGGTPSQSGA | 625 | 747 | 1370 | 309 | 289 | 217 | 556 | 1500 | 351 | 504 | 135
7 | DKKTAAGGTPSQPGA | 280 | 426 | 9150 | 400 | 1610 | 354 | 105 | 1040 | 314 | 688 | 194
8 | TDKKTAAGEAPSPPG | 346 | 879 | 419 | 328 | 8270 | 160 | 101 | 325 | 1330 | 145 | 93.5
9 | EKKPAAGGAPSQSGA | 205 | 405 | 4530 | 303 | 368 | 238 | 746 | 589 | 101 | 131 | 692
10 | NKTAAGETPSPPGAS | 798 | 2770 | 344 | 467 | 887 | 531 | 1170 | 817 | 596 | 261 | 1510
11 | KENKPATGGTPSQSG | 303 | 1290 | 369 | 631 | 384 | 381 | 353 | 181 | 120 | 148 | 147
12 | KEKKPATGGTPSPSG | 254 | 156 | 663 | 219 | 278 | 173 | 87.2 | 258 | 98.3 | 90.9 | 314
13 | GKENKTAAGEAPSPP | 536 | 9780 | 5770 | 5170 | 17200 | 436 | 132 | 139 | 167 | 206 | 139
14 | TPPSGTENKAAAGET | 40400 | 44100 | 178 | 2390 | 17800 | 2120 | 440 | 254 | 531 | 477 | 373
15 | TEKKPAAGGTPSPSG | 162 | 479 | 7230 | 564 | 1890 | 140 | 295 | 2380 | 252 | 483 | 1590
16 | DNKTAAGETPSPSGA | 283 | 609 | 350 | 348 | 1270 | 159 | 281 | 225 | 174 | 270 | 514
17 | KPAAGETPSPPGASS | 176 | 8110 | 197 | 254 | 811 | 163 | 277 | 195 | 152 | 151 | 355
18 | TEKKAAAGETPSPSG | 238 | 649 | 423 | 363 | 3670 | 146 | 253 | 189 | 204 | 353 | 1970
19 | KTAAGETPSPSGASS | 186 | 428 | 190 | 3350 | 1120 | 180 | 226 | 170 | 141 | 169 | 494
20 | GKDNKPAAGGTPSPP | 208 | 274 | 782 | 628 | 580 | 181 | 515 | 443 | 211 | 198 | 81.2
21 | SGKENKTAAGEAPSQ | 9300 | 19100 | 5710 | 4650 | 18000 | 8450 | 3280 | 192 | 517 | 676 | 219
22 | PSGKENKAATGGAPS | 3120 | 12400 | 11900 | 9510 | 10100 | 5270 | 2260 | 102 | 532 | 437 | 175
23 | GTENKAATGGTPSQS | 1510 | 1070 | 1830 | 2510 | 1300 | 302 | 518 | 313 | 282 | 331 | 142
24 | SGKDNKPATGGTPSQ | 324 | 9380 | 1080 | 865 | 1290 | 409 | 905 | 192 | 403 | 192 | 132
25 | GKEKKTATGGTPSPS | 276 | 317 | 2000 | 2150 | 2830 | 170 | 89.6 | 113 | 156 | 88.5 | 92.4
26 | EKKAAAGEAPSPPGA | 222 | 6590 | 431 | 334 | 11200 | 165 | 968 | 115 | 115 | 208 | 1060
27 | KDNKTATGETPSPSG | 318 | 1310 | 2190 | 240 | 6910 | 545 | 278 | 207 | 279 | 251 | 2730

Row | Sequence | antibody binding signal [1] | antibody binding signal [2] | antibody binding signal [3] | antibody binding signal [4] | antibody binding signal [5] | antibody binding signal [6] | antibody binding signal [7] | antibody binding signal [8] | antibody binding signal [9] | antibody binding signal [10] | antibody binding signal [11]
28 | ISTPPSGTENKPAAG | 52400 | 52600 | 442 | 12800 | 41100 | 8840 | 1720 | 830 | 1130 | 674 | 1180
29 | SGKDNKPATGGAPSQ | 4770 | 12000 | 1250 | 1200 | 2830 | 517 | 1180 | 145 | 458 | 227 | 167
30 | TPPSGTDNKAAAGGT | 42300 | 51400 | 2850 | 16600 | 8120 | 690 | 616 | 2980 | 231 | 365 | 212
31 | GTEKKAATGGAPSPS | 289 | 2030 | 2360 | 3400 | 2350 | 398 | 919 | 136 | 656 | 118 | 151
32 | STPPSGTDKKAATGE | 30900 | 35900 | 6290 | 43400 | 6970 | 787 | 220 | 395 | 355 | 2480 | 165
33 | GKDNKAAAGEAPSPP | 669 | 14300 | 6620 | 6490 | 10800 | 204 | 445 | 120 | 173 | 84.2 | 115
34 | TDNKTAAGGAPSQSG | 348 | 633 | 4740 | 481 | 306 | 344 | 312 | 603 | 203 | 554 | 206
35 | GTENKTATGEAPSPS | 35500 | 17200 | 605 | 751 | 21800 | 148 | 228 | 209 | 234 | 137 | 102
36 | GTDNKPATGEAPSPP | 48900 | 49200 | 1130 | 227 | 37900 | 896 | 761 | 459 | 146 | 304 | 116
37 | ENKTAAGEAPSQPGA | 30300 | 43100 | 231 | 275 | 9610 | 175 | 251 | 308 | 205 | 223 | 188
38 | KENKPAAGGTPSQSG | 211 | 489 | 501 | 358 | 238 | 260 | 167 | 298 | 164 | 114 | 151
39 | GTEKKAATGEAPSQS | 26800 | 30700 | 1020 | 1610 | 26300 | 449 | 759 | 160 | 615 | 189 | 157
40 | EKKAAAGETPSPSGA | 331 | 750 | 445 | 324 | 4190 | 200 | 1160 | 114 | 145 | 277 | 1960
41 | KDNKPATGEAPSPPG | 49000 | 49300 | 315 | 190 | 44700 | 1040 | 777 | 394 | 280 | 405 | 146
42 | PPSGTEKKAATGGAP | 898 | 13800 | 882 | 3170 | 3600 | 1520 | 894 | 146 | 784 | 135 | 341
43 | GKDNKTATGGAPSQP | 460 | 1050 | 2920 | 2480 | 1680 | 359 | 128 | 134 | 189 | 139 | 129
44 | SGTDNKPAAGGTPSQ | 1770 | 44100 | 4870 | 462 | 494 | 193 | 921 | 1090 | 450 | 602 | 246
45 | SGKEKKPATGEAPSP | 35000 | 44900 | 2310 | 5090 | 36200 | 907 | 605 | 165 | 225 | 168 | 374
46 | DNKAAAGEAPSQPGA | 26500 | 41900 | 156 | 186 | 13700 | 130 | 265 | 183 | 122 | 308 | 124
47 | DKKPATGETPSQSGA | 23400 | 32700 | 120 | 159 | 23400 | 204 | 397 | 525 | 199 | 1660 | 137
48 | KDKKAATGGTPSPPG | 247 | 157 | 414 | 304 | 364 | 150 | 78.9 | 165 | 231 | 59.4 | 77.4
49 | NKTATGETPSQSGAS | 4230 | 10500 | 193 | 314 | 5450 | 433 | 781 | 263 | 252 | 417 | 991
50 | DNKAATGGAPSPSGA | 546 | 1280 | 691 | 540 | 1830 | 372 | 204 | 438 | 236 | 326 | 144
51 | KENKTATGGAPSPSG | 229 | 228 | 550 | 292 | 390 | 300 | 124 | 117 | 100 | 108 | 149
52 | PPSGKDKKTATGGAP | 242 | 559 | 949 | 30500 | 1510 | 274 | 320 | 96.3 | 271 | 84 | 174
53 | GKEKKAAAGGAPSQP | 219 | 971 | 1790 | 891 | 991 | 94 | 85.4 | 111 | 94.1 | 96.4 | 77.5
54 | SGKDKKAAAGETPSQ | 240 | 746 | 1180 | 970 | 1520 | 117 | 79.2 | 90.7 | 318 | 78.1 | 78.8
